PubChem BioAssay AID485294 (National Center for Advancing Translational Sciences (NCATS), 2010)
The campaign covered roughly 370,000 compounds. About 150 (0.041%) were called active. This list was built around the results that the source calls inconclusive (neither active nor inactive); the mix of calls is not that of the screen. Calls follow the shape of the dose curve; as a rule, active = well fitted inhibition curve with a large enough effect; inconclusive = small, poorly fitted or top-dose-only effect; inactive = flat fitted curve, though single readings scatter. No potency is given beside an inconclusive call; the fits are too rough.

target: Beta-lactamase (Escherichia coli (strain K12)) (UniProt P00811); experiment: qHTS Inhibitors of AmpC Beta-Lactamase (assay with detergent); settings: AmpC hydrolysis of nitrocefin, absorbance 480 nm, 0.01% Triton; activity change, negative = inhibition: at 114 µM (top of the series); also: nearly all actives have a fitted effect of over 25% in size;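 as to activity change, negative = inhibition: 0% = no-compound wells and -100% = no-enzyme wells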
In short: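 20 mM phosphate pH 7.0 + 0.01% (detergent screen) or 0.0001% Triton X-100; 5.3 nM AmpC reagent; cpd preinc 15 min RT; nitrocefin (800 uM stock) to start; A480 q20 s × 4 min; Activity was normalised to no-enzyme and no-compound control wells.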
Potency is read from the fitted curve at half-maximal effect; tags tell the direction and shape of the fitted curve.

Chain of UniProt P00811 (P00811 whole entry, looked up): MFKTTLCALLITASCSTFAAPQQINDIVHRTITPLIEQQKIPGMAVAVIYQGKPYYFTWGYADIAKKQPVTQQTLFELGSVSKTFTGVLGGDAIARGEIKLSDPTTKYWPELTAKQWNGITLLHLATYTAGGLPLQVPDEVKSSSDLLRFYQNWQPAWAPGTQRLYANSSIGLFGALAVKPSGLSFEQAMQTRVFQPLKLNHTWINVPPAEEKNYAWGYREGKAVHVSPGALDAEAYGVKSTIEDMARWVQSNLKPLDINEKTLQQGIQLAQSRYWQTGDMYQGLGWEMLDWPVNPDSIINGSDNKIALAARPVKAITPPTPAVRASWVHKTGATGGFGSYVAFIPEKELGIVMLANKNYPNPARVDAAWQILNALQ

SMILES | Potency | activity change, negative = inhibition
COc1cc(C(=O)Nc2cccc(C)c2C)ccc1OCC(=O)N1CCOCC1 | inconclusive [inhibitor, partial curve] | 
O=C(CN1CCCCCCC1)NC(=O)NC1CCCCC1 |  | inactive: 1.68%
O=C(Nc1ccc(COc2ccccc2)cc1)Nc1cccc(C(=O)O)c1 | inconclusive [inhibitor, full curve, poor fit] | 
O=C(NC(=S)Nc1cccc(C(F)(F)F)c1)c1ccc2nonc2c1 |  | inactive: 7.27%
CCc1sc(C(=O)Nc2ccc(F)cc2C)cc1C |  | inactive: -6.51%
Cc1cccc(NC(=O)N2CCC(NC(=O)c3ccccc3C)CC2)c1 | inconclusive [inhibitor, full curve, poor fit] | 
O=C(COC(=O)Cc1ccc(Cl)cc1)NCc1ccc2c(c1)OCO2 | inconclusive [inhibitor, full curve, poor fit] | 
Cc1sc2ncn(CC(=O)NCC(=O)N(C)Cc3ccccc3)c(=O)c2c1C | inconclusive [inhibitor, full curve, poor fit] | 
CCN(CC)C(=O)CSc1nc2cc3c(cc2c(=O)n1Cc1ccc(C(=O)NCCc2ccc(OC)c(OC)c2)cc1)OCO3 |  | inactive: 5.97%
COc1ccccc1C1NC(=O)NC(C)=C1C(C)=O (stereo unspecified) | inconclusive [inhibitor, full curve, poor fit] | 
CC(C)n1nc(C(=O)NCCc2ccc(S(N)(=O)=O)cc2)c2ccccc2c1=O | inconclusive [inhibitor, full curve, poor fit] | 
Cc1nn(-c2ccccc2)c(Cl)c1C(=O)N1CCN(c2ncnc3c2cnn3-c2ccccc2)CC1 | inconclusive [inhibitor, partial curve, poor fit] | 
COc1ccc(CC(=O)NCC(=O)N=Nc2c(O)[nH]c3ccccc23)cc1 |  | inactive: 2.93%
Cc1[nH]c2ccccc2c1Cc1nnc(SCC(N)=O)o1 | inconclusive [inhibitor, full curve, poor fit] | 
Cc1cc2nc(CCN3CCOCC3)n(S(=O)(=O)c3ccc(C(C)(C)C)cc3)c2cc1C | inconclusive [inhibitor, single point] | 
CCC(CC)C(=O)OCC(=O)Nc1cccc([N+](=O)[O-])c1 |  | inactive: -0.441%
O=C(O)CCc1ccc(-c2cccs2)n1-c1ccc(C(=O)O)cc1 | inconclusive [inhibitor, full curve, poor fit] | 
CN(C)C(CNC(=O)c1cccnc1Sc1ccccc1)c1ccco1 (stereo unspecified) | inconclusive [inhibitor, full curve] | 
O=C(CCn1cccn1)Nc1ccc2c(c1)OCO2 |  | inactive: 5.04%
NC(=O)Cc1nc(-c2ccccc2)cs1 | inconclusive [inhibitor, full curve, poor fit] | 
CCN(CC)S(=O)(=O)c1ccc(C(=O)Nc2nnc(C(C)C)s2)cc1 | inconclusive [inhibitor, full curve, poor fit] | 
Cc1ccc2c(c1)N(C(=O)CCC(=O)NC1CCCCCC1)CC(C)O2 (stereo unspecified) | inconclusive [inhibitor, single point] | 

SMILES | Potency | activity change, negative = inhibition
COC(=O)C1CCCN1C(=O)COc1ccc(Cl)cc1Br (stereo unspecified) |  | inactive: -8.67%
COc1ccccc1CC(=O)Nc1cccc(S(=O)(=O)N2CCOCC2)c1 |  | inactive: 0.0996%
COc1cc(-c2nc3cnccn3c2NC(C)(C)CC(C)(C)C)ccc1O |  | inactive: -1.5%
COc1ccccc1Oc1coc2cc(OC(=O)N3CCOCC3)ccc2c1=O | inconclusive [inhibitor, full curve, poor fit] | 
COc1cccc(/C=N/NC(=O)CC(C)O)c1OC/C=C/c1ccccc1 (stereo unspecified) | inconclusive [inhibitor, full curve, poor fit] | 
Cc1ccc(NC(=O)Cn2c(CCC(=O)O)ccc2-c2cccs2)cc1 | inconclusive [inhibitor, partial curve, poor fit] | 
COc1cccc(N2CCN(c3nc4ccc(C(=O)c5ccccc5)cc4n4c(C)nnc34)CC2)c1 |  | inactive: 1.11%
CC1CCCC(NC(=O)C2N(CCCN3CCCC3)C(=O)C3C(C(=O)Nc4ccc(Cl)cc4)C4C=CC32O4)C1C (stereo unspecified) |  | inactive: -3.69%
Cc1ccc(C(=O)OCC(=O)Nc2ccc(N3CCOCC3)cc2)cc1 | inconclusive [inhibitor, partial curve, poor fit] | 
CC(=O)c1cccc(NC(=O)N2CCCc3ccccc32)c1 | inconclusive [inhibitor, partial curve] | 
Cc1cc(C)nc(NC(=O)c2cccc(Cl)c2)n1 | inconclusive [inhibitor, full curve, poor fit] | 
O[C@@H]1C2CCCC1[C@]1(O)CCCCC1C2 (stereo partly specified) | inconclusive [inhibitor, partial curve, poor fit] | 
O=C(OCC1COc2ccccc2O1)c1c(F)cccc1F (stereo unspecified) | inconclusive [inhibitor, full curve] | 
OC(COCc1ccccc1)CN1CCCC1 (stereo unspecified) | inconclusive [inhibitor, partial curve, poor fit] | 
CC1CCc2nn(CC(=O)Nc3c(F)cc(F)cc3Br)cc2C1 (stereo unspecified) | inconclusive [inhibitor, full curve, poor fit] | 
N#Cc1ccc(CN2CCN(C(=O)CNC(=O)Cc3cccc4ccccc34)CC2)cc1 | inconclusive [inhibitor, full curve, poor fit] | 
CCC(CO)NC(=O)c1ccc(-c2nn(C)c(=O)c3ccccc23)cc1 (stereo unspecified) | inconclusive [inhibitor, full curve, poor fit] | 
CN(C)S(=O)(=O)Nc1ccc2c(c1)Cc1ccccc1-2 | inconclusive [inhibitor, partial curve, poor fit] | 
CCOC(=O)c1c(C)noc1CP(=O)(c1ccccc1)c1ccccc1 | inconclusive [inhibitor, partial curve] | 
Cn1cnc(C(F)(F)F)c1-c1ccc([N+](=O)[O-])cc1 | inconclusive [inhibitor, full curve, poor fit] | 
CCOC(=O)CNC(=O)CSc1nc(NCc2ccccc2)nc(N(C)C)n1 | inconclusive [inhibitor, partial curve, poor fit] | 
CN(C)S(=O)(=O)c1ccc(NC(=O)CN2C(=O)NC3(CCCC3)C2=O)cc1 |  | inactive: -6.78%

SMILES | Potency | activity change, negative = inhibition
C=C(C)c1cccc(C(C)(C)NC(=O)Nc2ccccc2OCC)c1 | inconclusive [inhibitor, full curve] | 
Cc1cc(N2CCN(c3ccccn3)CC2)n2c(nc3ccccc32)c1C#N | inconclusive [inhibitor, partial curve, poor fit] | 
COc1cccc(NC(=O)CSc2nnc(-c3cccs3)n2C)c1 | inconclusive [inhibitor, full curve] | 
Cc1c(NC(=O)c2ccccc2F)c(=O)n(-c2ccccc2)n1C |  | inactive: 1.78%
Cc1ccc(C)c(NC(=O)c2cc([N+](=O)[O-])cc([N+](=O)[O-])c2)c1 | inconclusive [inhibitor, full curve] | 
CCC(C)c1ccccc1OCC(=O)NN1C(=O)c2ccccc2C1=O (stereo unspecified) | inconclusive [inhibitor, partial curve, poor fit] | 
O=C(COC(=O)c1cn(-c2ccccc2)nc1-c1ccccc1)Nc1ncc(Cl)cc1Cl | inconclusive [inhibitor, full curve, poor fit] | 
CCOc1ccc(NC2=NCC(=O)N2CCc2ccccc2)cc1 |  | inactive: 9.7%
CCCCN(C(=O)c1ccc(-c2ccc(Cl)cc2)o1)c1c(N)n(CC(C)C)c(=O)[nH]c1=O | inconclusive [inhibitor, full curve, poor fit] | 
CCC(NC(=O)COC(=O)C1CC2CCCC(C1)C2=O)c1ccc(Br)cc1 (stereo unspecified) | inconclusive [inhibitor, partial curve, poor fit] | 
COc1ccc(C(=O)NCCc2ccc(F)cc2)cc1OC |  | inactive: -4%
CN(C)CCCN(C(=O)/C=C/c1cccs1)c1nc2c(F)cccc2s1 | inconclusive [inhibitor, full curve, poor fit] | 
Cc1c(NC(=O)C(C)Sc2nc3ccccc3c(=O)n2CCO)c(=O)n(-c2ccccc2)n1C (stereo unspecified) |  | inactive: -7.65%
CCCN(CCC)C(=O)Cn1c(=O)n(Cc2ccc(C(=O)NCCc3ccc(OC)c(OC)c3)cc2)c(=O)c2ccccc21 | inconclusive [inhibitor, partial curve] | 
O=[N+]([O-])c1cccc(NC(=S)N2CCOCC2)c1 |  | inactive: -5.18%
CN(C(=O)c1ccc(S(=O)(=O)N2CCCCC2)cc1)C1CCS(=O)(=O)C1 (stereo unspecified) | inconclusive [inhibitor, full curve, poor fit] | 
Cc1ccc(CNC(=O)C2CC(c3ccccc3[N+](=O)[O-])=NO2)cc1 (stereo unspecified) | inconclusive [inhibitor, partial curve, poor fit] | 
COc1ccc(C(=O)Nc2ccc3c(c2)OCO3)cc1OC | inconclusive [inhibitor, full curve, poor fit] | 
CS(=O)(=O)N1CCCC(C(=O)N2CCC3(CC2)OCCO3)C1 (stereo unspecified) | inconclusive [inhibitor, full curve, poor fit] | 
Cc1ccc(-n2c(CCC(=O)O)ccc2-c2cccs2)cc1 |  | inactive: -0.281%
O=C(CNC(=O)c1cccc(-n2cnnn2)c1)Nc1ccc(F)c(F)c1 | inconclusive [inhibitor, partial curve, poor fit] | 
O=C(Nc1cnn(Cc2ccc(F)cc2)c1)c1cc2nc(-c3ccco3)cc(C(F)(F)F)n2n1 | inconclusive [inhibitor, full curve, poor fit] | 
